Consider one substance from article PMC6078952.

Chains of the proteins cited; added tags and fusions are not shown. Lines headed by an entry give the natural chain unless they say otherwise; changes in a name come on top. A line that says so, or that is headed by a name, gives the form on record, which may keep a tag or linker. Residues count along the entry.
UniProt P06756: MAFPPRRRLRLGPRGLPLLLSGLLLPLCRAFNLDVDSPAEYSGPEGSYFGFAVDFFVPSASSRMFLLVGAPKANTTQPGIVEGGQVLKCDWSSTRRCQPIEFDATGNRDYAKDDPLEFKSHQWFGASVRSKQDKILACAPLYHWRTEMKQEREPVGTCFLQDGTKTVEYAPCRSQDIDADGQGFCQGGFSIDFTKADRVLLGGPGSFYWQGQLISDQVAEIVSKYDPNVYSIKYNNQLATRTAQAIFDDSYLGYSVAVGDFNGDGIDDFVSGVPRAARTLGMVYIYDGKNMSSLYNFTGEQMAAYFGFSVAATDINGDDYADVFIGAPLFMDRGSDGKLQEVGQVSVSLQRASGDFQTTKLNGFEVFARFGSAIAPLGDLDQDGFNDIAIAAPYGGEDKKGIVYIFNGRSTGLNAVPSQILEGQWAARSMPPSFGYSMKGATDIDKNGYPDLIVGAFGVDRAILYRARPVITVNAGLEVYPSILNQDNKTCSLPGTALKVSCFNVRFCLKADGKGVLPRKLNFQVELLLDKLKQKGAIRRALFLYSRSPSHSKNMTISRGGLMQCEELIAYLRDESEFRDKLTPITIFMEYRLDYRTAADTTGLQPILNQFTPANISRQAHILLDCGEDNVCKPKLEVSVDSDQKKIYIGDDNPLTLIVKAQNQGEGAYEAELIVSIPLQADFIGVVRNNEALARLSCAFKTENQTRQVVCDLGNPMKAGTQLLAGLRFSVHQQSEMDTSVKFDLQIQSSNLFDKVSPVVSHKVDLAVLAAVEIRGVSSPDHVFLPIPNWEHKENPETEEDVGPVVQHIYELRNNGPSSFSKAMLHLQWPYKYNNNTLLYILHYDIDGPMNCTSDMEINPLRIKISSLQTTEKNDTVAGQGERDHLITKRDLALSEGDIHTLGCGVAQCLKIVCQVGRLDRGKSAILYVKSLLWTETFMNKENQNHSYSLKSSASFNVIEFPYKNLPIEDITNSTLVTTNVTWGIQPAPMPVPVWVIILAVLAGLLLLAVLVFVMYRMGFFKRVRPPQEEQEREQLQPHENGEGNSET
UniProt Q15848, residues 19-244: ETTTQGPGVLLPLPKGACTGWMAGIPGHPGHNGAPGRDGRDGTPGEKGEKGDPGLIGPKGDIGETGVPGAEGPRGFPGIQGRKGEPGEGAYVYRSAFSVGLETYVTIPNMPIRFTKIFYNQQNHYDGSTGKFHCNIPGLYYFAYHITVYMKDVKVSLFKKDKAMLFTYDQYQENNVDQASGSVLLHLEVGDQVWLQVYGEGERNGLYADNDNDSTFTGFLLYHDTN
UniProt P07996, residues 19-1170: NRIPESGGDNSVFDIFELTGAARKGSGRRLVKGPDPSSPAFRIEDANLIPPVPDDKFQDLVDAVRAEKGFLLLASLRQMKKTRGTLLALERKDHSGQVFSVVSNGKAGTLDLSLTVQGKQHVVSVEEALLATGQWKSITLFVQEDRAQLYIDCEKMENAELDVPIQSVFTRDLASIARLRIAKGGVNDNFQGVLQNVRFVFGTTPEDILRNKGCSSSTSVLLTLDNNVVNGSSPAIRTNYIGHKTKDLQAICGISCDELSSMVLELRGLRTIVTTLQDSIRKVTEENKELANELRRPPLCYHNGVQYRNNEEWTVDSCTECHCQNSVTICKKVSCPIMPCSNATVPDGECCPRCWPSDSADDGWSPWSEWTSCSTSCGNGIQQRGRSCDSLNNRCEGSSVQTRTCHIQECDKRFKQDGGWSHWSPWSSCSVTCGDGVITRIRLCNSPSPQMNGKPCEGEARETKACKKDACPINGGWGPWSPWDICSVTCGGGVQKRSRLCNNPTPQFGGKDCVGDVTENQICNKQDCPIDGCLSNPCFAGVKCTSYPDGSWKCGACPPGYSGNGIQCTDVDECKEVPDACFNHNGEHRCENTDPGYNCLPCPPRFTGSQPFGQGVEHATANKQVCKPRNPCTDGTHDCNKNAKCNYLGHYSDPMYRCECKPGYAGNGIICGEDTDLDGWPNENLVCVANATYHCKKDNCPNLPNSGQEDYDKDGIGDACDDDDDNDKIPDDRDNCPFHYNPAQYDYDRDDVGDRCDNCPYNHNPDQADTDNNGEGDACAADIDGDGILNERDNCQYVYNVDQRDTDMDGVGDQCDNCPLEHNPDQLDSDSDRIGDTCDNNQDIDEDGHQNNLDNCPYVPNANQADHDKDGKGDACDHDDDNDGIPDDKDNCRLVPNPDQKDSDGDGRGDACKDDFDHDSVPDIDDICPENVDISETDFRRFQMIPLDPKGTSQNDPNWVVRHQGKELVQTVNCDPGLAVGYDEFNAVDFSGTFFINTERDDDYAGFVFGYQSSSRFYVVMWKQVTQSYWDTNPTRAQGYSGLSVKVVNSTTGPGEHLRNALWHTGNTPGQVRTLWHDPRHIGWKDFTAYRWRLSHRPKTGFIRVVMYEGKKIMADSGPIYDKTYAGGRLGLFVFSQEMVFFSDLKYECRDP
UniProt P20908: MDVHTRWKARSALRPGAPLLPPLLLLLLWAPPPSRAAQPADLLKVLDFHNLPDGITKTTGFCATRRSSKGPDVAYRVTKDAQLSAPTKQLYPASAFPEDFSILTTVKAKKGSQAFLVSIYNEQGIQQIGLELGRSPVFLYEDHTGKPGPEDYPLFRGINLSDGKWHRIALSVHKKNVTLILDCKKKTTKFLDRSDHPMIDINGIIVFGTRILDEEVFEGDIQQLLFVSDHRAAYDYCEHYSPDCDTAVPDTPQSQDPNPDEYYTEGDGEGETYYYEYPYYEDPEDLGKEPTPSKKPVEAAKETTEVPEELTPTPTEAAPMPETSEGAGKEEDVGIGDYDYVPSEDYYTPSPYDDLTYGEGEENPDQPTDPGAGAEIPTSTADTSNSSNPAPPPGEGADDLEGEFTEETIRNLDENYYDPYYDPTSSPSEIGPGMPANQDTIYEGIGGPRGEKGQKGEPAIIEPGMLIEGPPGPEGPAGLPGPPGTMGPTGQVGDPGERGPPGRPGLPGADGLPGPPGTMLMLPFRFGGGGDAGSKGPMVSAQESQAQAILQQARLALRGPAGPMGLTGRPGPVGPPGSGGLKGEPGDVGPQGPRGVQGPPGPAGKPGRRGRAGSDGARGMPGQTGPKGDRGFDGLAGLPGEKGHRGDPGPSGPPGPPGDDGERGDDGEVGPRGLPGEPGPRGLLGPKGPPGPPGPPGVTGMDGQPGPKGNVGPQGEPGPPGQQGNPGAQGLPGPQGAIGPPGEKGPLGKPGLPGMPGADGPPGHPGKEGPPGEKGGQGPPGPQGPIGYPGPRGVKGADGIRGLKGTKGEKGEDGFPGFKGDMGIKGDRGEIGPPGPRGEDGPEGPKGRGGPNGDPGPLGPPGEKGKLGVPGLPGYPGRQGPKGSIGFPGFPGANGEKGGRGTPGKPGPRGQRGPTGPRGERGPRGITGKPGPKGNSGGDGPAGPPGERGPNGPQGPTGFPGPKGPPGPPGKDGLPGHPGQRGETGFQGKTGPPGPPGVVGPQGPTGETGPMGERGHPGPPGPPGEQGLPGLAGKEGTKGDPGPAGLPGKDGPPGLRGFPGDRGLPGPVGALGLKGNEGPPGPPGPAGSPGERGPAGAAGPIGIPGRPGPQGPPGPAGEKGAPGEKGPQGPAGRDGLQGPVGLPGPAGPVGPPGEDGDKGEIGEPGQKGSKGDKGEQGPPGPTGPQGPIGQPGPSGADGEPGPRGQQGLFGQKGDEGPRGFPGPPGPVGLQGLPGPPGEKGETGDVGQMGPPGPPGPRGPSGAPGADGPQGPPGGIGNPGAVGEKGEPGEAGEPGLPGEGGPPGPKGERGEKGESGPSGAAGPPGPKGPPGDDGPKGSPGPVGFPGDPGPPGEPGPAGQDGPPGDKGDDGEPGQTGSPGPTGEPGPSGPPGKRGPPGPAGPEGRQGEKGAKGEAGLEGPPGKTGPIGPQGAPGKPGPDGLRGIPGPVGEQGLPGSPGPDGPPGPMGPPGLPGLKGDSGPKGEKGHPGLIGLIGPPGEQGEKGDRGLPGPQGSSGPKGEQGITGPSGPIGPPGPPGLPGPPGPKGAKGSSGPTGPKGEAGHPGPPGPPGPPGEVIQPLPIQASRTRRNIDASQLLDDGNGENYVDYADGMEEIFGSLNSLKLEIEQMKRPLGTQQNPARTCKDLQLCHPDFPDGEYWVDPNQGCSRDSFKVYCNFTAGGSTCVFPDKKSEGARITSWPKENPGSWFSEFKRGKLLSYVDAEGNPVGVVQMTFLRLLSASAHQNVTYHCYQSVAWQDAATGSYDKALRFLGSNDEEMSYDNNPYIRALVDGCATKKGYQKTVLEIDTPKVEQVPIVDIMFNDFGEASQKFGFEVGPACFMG
UniProt O95967, residues 26-443: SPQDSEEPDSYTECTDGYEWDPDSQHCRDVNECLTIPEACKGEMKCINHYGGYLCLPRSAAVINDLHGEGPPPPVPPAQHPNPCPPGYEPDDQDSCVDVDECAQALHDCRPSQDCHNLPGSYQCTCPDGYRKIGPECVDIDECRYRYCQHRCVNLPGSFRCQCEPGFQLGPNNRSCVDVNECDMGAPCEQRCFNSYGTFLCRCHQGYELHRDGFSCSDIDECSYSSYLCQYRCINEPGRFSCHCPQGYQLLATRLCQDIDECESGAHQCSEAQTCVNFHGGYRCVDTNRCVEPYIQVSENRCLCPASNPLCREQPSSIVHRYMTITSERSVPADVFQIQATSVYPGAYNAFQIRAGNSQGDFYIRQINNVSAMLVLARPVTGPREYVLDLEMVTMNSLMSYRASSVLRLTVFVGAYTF
UniProt O14786, residues 23-815: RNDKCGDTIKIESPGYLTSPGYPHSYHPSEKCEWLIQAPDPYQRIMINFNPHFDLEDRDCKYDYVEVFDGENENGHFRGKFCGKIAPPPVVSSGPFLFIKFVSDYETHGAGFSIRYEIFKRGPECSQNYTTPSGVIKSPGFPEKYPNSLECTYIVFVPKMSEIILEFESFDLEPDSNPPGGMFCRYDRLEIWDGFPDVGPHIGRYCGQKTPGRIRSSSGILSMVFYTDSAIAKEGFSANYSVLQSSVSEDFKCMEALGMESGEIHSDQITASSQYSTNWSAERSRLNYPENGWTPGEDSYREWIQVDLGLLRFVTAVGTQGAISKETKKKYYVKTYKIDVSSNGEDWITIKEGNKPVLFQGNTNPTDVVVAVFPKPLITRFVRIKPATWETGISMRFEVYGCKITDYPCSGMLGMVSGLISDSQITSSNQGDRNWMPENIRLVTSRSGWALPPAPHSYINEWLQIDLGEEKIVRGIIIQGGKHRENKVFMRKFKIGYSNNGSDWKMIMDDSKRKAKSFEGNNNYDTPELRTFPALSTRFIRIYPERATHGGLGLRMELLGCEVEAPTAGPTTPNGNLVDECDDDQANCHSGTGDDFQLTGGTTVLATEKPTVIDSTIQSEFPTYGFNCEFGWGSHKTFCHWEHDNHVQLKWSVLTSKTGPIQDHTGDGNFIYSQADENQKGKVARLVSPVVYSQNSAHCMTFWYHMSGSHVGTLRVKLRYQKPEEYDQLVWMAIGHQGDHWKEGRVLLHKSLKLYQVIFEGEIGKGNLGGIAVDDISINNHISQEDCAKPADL
Lysyl oxidase propeptide (LOX-PP) (Pro24Leu) (P28300, form named): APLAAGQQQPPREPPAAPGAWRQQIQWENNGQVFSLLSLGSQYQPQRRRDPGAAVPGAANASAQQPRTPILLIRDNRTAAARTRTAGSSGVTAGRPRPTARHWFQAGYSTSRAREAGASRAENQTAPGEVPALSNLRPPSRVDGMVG

No constants are given. Whether binding was seen depends on the method and setting. Some entries that bind do so weakly or less than the wild type.

Targets include Integrin αvβ3 ectodomain (UniProt P06756); Adiponectin (UniProt Q15848); Collagen VI (UniProt P12109); Thrombospondin-1 (TSP-1) (UniProt P07996); Collagen V (UniProt P20908); Fibulin 4 (UniProt O95967).
Holding throughout (experiment): SPR; SPR imaging (SPRi, Biacore Flexchip): partners spotted in triplicate on a bare gold chip at 0.06 to 1 mg/ml; purified LOX-PP injected at 2 µM and recirculated for 20 min; PBS with 0.05% Tween 20, 25 °C; both purified
A general note: In SPR one partner is held on a chip, and binding of the other changes the refractive index at the surface.

Assay [1] deals with Neuropilin-1 (NRP1) ectodomain (UniProt O14786).
The target of assay [2] is T1, Latent transforming growth factor β binding protein 1 (9-14 EGF-like domains) (UniProt Q14766).
T1 sequence: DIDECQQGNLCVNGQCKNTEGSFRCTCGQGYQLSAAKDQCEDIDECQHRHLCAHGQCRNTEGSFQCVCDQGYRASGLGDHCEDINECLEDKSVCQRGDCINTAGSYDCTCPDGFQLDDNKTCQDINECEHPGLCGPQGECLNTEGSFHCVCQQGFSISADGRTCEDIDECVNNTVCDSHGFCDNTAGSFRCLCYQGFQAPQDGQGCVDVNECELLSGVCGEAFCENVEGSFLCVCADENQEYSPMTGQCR

The target in assay [3] is T2, Leukocyte-associated immunoglobulin-like receptor-1 (LAIR1) (UniProt Q6GTX8).
T2 sequence: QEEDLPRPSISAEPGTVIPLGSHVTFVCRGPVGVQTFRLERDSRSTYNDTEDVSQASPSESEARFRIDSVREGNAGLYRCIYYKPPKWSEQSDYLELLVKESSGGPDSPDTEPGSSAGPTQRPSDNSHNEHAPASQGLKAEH

For the next assay, the target named is T3, Glypican 1 (UniProt P35052).
T3 sequence: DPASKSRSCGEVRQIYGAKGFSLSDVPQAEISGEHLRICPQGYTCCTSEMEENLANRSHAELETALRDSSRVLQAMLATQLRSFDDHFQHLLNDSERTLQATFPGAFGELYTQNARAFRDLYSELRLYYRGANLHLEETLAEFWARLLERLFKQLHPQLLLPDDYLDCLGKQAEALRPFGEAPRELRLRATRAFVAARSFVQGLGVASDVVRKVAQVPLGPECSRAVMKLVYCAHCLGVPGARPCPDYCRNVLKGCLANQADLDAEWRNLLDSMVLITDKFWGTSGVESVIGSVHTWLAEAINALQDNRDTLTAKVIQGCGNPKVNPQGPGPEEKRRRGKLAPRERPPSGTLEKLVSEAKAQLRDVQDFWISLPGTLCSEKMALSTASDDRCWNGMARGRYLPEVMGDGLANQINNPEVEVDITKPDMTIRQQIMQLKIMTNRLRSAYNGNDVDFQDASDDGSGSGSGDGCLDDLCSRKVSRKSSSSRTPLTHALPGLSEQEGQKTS

For “Lysyl oxidase propeptide (LOX-PP) (Pro24Leu) (from UniProt P28300 22-168) (domain or fragment)”, the binding result was “no binding (tested: 2 µM)” in the assay with Integrin αvβ3 ectodomain; “no binding (tested: 2 µM)” in [1]; “no binding (tested: 2 µM)” in the assay with Adiponectin; “no binding (tested: 2 µM)” with Collagen VI; “no binding (tested: 2 µM)” with Thrombospondin-1 (TSP-1); “binds” in [2]. The binding result (in [3]; with Collagen V; in the assay with Glypican 1; in the assay with Fibulin 4) was “no binding (tested: 2 µM)” throughout.
